This is one part of the list.
What was measured:
Experiment in all cases: glycan array binding signal (z-score within array); higher = stronger binding
Conditions in all cases: glycan notation: IUPAC condensed, linker removed
[1] = target: Gal(b1-4)GlcNAc(b1-3)Gal(b1-4)GlcNAc(b1-2)[Gal(b1-4)GlcNAc(b1-3)Gal(b1-4)GlcNAc(b1-6)]Man(a1-6)[Gal(b1-4)GlcNAc(b1-3)Gal(b1-4)GlcNAc(b1-2)Man(a1-3)]Man(b1-4)GlcNAc(b1-4)GlcNAc
How it was run: (§1)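 Glycan array binding is given as a within-array Z-score, which can be read as non-binding when negative. The arrays, 3228 of them, came from the Consortium for Functional Glycomics database and were retained only where the protein sequence was available. Z-scores were averaged across arrays of the same protein sequence at different concentrations or buffers and across linkers.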

[2] = target: Gal(b1-4)GlcNAc(b1-3)Gal(b1-4)GlcNAc(b1-2)[Gal(b1-4)GlcNAc(b1-3)Gal(b1-4)GlcNAc(b1-6)]Man(a1-6)[Gal(b1-4)GlcNAc(b1-3)Gal(b1-4)GlcNAc(b1-2)Man(a1-3)]Man(b1-4)GlcNAc(b1-4)[Fuc(a1-6)]GlcNAc
How it was run: as §1

[3] = target: Gal(b1-4)GlcNAc(b1-3)Gal(b1-4)GlcNAc(b1-3)Gal(b1-4)GlcNAc
How it was run: as §1

[4] = target: Gal(b1-4)GlcNAc(b1-3)Gal(b1-4)GlcNAc(b1-3)Gal(b1-4)GlcNAc(b1-2)Man(a1-3)[Gal(b1-4)GlcNAc(b1-3)Gal(b1-4)GlcNAc(b1-3)Gal(b1-4)GlcNAc(b1-2)Man(a1-6)]Man(b1-4)GlcNAc(b1-4)GlcNAc
How it was run: as §1

[5] = target: Gal(b1-4)GlcNAc(b1-3)Gal(b1-4)GlcNAc(b1-3)Gal(b1-4)GlcNAc(b1-2)Man(a1-3)[Gal(b1-4)GlcNAc(b1-3)Gal(b1-4)GlcNAc(b1-3)Gal(b1-4)GlcNAc(b1-2)Man(a1-6)]Man(b1-4)GlcNAc(b1-4)[Fuc(a1-6)]GlcNAc
How it was run: as §1

[6] = target: Gal(b1-4)GlcNAc(b1-3)Gal(b1-4)GlcNAc(b1-3)Gal(b1-4)GlcNAc(b1-2)[Gal(b1-4)GlcNAc(b1-3)Gal(b1-4)GlcNAc(b1-3)Gal(b1-4)GlcNAc(b1-6)]Man(a1-6)[Gal(b1-4)GlcNAc(b1-3)Gal(b1-4)GlcNAc(b1-3)Gal(b1-4)GlcNAc(b1-2)Man(a1-3)]Man(b1-4)GlcNAc(b1-4)[Fuc(a1-6)]GlcNAc
How it was run: as §1

[7] = target: Gal(b1-4)GlcNAc(b1-3)Gal(b1-4)GlcNAc(b1-3)Gal(b1-4)GlcNAc(b1-3)Gal(b1-4)GlcNAc(b1-2)Man(a1-3)[Gal(b1-4)GlcNAc(b1-3)Gal(b1-4)GlcNAc(b1-3)Gal(b1-4)GlcNAc(b1-3)Gal(b1-4)GlcNAc(b1-2)Man(a1-6)]Man(b1-4)GlcNAc(b1-4)GlcNAc
How it was run: as §1

[8] = target: Gal(b1-4)GlcNAc(b1-3)Gal(b1-4)GlcNAc(b1-3)Gal(b1-4)GlcNAc(b1-3)Gal(b1-4)GlcNAc(b1-2)Man(a1-3)[Gal(b1-4)GlcNAc(b1-3)Gal(b1-4)GlcNAc(b1-3)Gal(b1-4)GlcNAc(b1-3)Gal(b1-4)GlcNAc(b1-2)Man(a1-6)]Man(b1-4)GlcNAc(b1-4)[Fuc(a1-6)]GlcNAc
How it was run: as §1

[9] = target: Gal(b1-4)GlcNAc(b1-3)Gal(b1-4)GlcNAc(b1-3)Gal(b1-4)GlcNAc(b1-3)Gal(b1-4)GlcNAc(b1-2)[Gal(b1-4)GlcNAc(b1-3)Gal(b1-4)GlcNAc(b1-3)Gal(b1-4)GlcNAc(b1-3)Gal(b1-4)GlcNAc(b1-6)]Man(a1-6)[Gal(b1-4)GlcNAc(b1-3)Gal(b1-4)GlcNAc(b1-3)Gal(b1-4)GlcNAc(b1-3)Gal(b1-4)GlcNAc(b1-2)Man(a1-3)]Man(b1-4)GlcNAc(b1-4)[Fuc(a1-6)]GlcNAc
How it was run: as §1

[10] = target: Gal(b1-4)GlcNAc(b1-3)Gal(b1-4)GlcNAc(b1-3)Gal(b1-4)GlcNAc(b1-3)Gal(b1-4)GlcNAc(b1-3)Gal(b1-4)GlcNAc(b1-2)Man(a1-3)[Gal(b1-4)GlcNAc(b1-3)Gal(b1-4)GlcNAc(b1-3)Gal(b1-4)GlcNAc(b1-3)Gal(b1-4)GlcNAc(b1-3)Gal(b1-4)GlcNAc(b1-2)Man(a1-6)]Man(b1-4)GlcNAc(b1-4)GlcNAc
How it was run: as §1

[11] = target: Gal(b1-4)GlcNAc(b1-3)Gal(b1-4)GlcNAc(b1-3)Gal(b1-4)GlcNAc(b1-3)Gal(b1-4)GlcNAc(b1-3)Gal(b1-4)GlcNAc(b1-2)Man(a1-3)[Gal(b1-4)GlcNAc(b1-3)Gal(b1-4)GlcNAc(b1-3)Gal(b1-4)GlcNAc(b1-3)Gal(b1-4)GlcNAc(b1-3)Gal(b1-4)GlcNAc(b1-2)Man(a1-6)]Man(b1-4)GlcNAc(b1-4)[Fuc(a1-6)]GlcNAc
How it was run: as §1

[12] = target: Gal(b1-4)GlcNAc(b1-3)Gal(b1-4)GlcNAc(b1-3)Gal(b1-4)GlcNAc(b1-3)Gal(b1-4)GlcNAc(b1-3)Gal(b1-4)GlcNAc(b1-2)[Gal(b1-4)GlcNAc(b1-3)Gal(b1-4)GlcNAc(b1-3)Gal(b1-4)GlcNAc(b1-3)Gal(b1-4)GlcNAc(b1-3)Gal(b1-4)GlcNAc(b1-6)]Man(a1-6)[Gal(b1-4)GlcNAc(b1-3)Gal(b1-4)GlcNAc(b1-3)Gal(b1-4)GlcNAc(b1-3)Gal(b1-4)GlcNAc(b1-3)Gal(b1-4)GlcNAc(b1-2)Man(a1-3)]Man(b1-4)GlcNAc(b1-4)[Fuc(a1-6)]GlcNAc
How it was run: as §1

[13] = target: Gal(b1-4)GlcNAc(b1-3)Gal(b1-4)GlcNAc(b1-3)Gal(b1-4)GlcNAc(b1-3)Gal(b1-4)GlcNAc(b1-3)Gal(b1-4)GlcNAc(b1-3)Gal(b1-4)GlcNAc(b1-2)Man(a1-3)[Gal(b1-4)GlcNAc(b1-3)Gal(b1-4)GlcNAc(b1-3)Gal(b1-4)GlcNAc(b1-3)Gal(b1-4)GlcNAc(b1-3)Gal(b1-4)GlcNAc(b1-3)Gal(b1-4)GlcNAc(b1-2)Man(a1-6)]Man(b1-4)GlcNAc(b1-4)GlcNAc
How it was run: as §1

[14] = target: Gal(b1-4)GlcNAc(b1-3)Gal(b1-4)GlcNAc(b1-3)GalNAc
How it was run: as §1

[15] = target: Gal(b1-4)GlcNAc(b1-3)Gal(b1-4)GlcNAc(b1-3)[Gal(b1-4)GlcNAc(b1-3)Gal(b1-4)GlcNAc(b1-6)]GalNAc
How it was run: as §1

[16] = target: Gal(b1-4)GlcNAc(b1-3)Gal(b1-4)GlcNAc(b1-6)[Gal(b1-3)]GalNAc
How it was run: as §1

[17] = target: Gal(b1-4)GlcNAc(b1-3)Gal(b1-4)[Fuc(a1-3)]GlcNAc(b1-3)Gal(b1-4)[Fuc(a1-3)]GlcNAc
How it was run: as §1

[18] = target: Gal(b1-4)GlcNAc(b1-3)GalNAc
How it was run: as §1

[19] = target: Gal(b1-4)GlcNAc(b1-3)[Fuc(a1-3)GlcNAc(b1-6)]Gal(b1-4)Glc
How it was run: as §1

[20] = target: Gal(b1-4)GlcNAc(b1-3)[Gal(b1-4)GlcNAc(b1-6)]Gal(b1-4)GlcNAc
How it was run: as §1

[21] = target: Gal(b1-4)GlcNAc(b1-3)[GlcNAc(b1-6)]Gal(b1-4)GlcNAc
How it was run: as §1

[22] = target: Gal(b1-4)GlcNAc(b1-6)Gal(b1-4)GlcNAc
How it was run: as §1

[23] = target: Gal(b1-4)GlcNAc(b1-6)GalNAc
How it was run: as §1

[24] = target: Gal(b1-4)GlcNAc(b1-6)[Gal(b1-3)]GalNAc
How it was run: as §1

[25] = target: Gal(b1-4)GlcNAc(b1-6)[Gal(b1-4)GlcNAc(b1-3)]GalNAc
How it was run: as §1

[26] = target: Gal(b1-4)GlcNAc6P
How it was run: as §1

[27] = target: Gal(b1-6)Gal
How it was run: as §1

[28] = target: Gal3S(b1-3)GalNAc
How it was run: as §1

[29] = target: Gal3S(b1-3)GlcNAc
How it was run: as §1

[30] = target: Gal3S(b1-3)[Fuc(a1-4)]GlcNAc
How it was run: as §1

[31] = target: Gal3S(b1-4)Glc
How it was run: as §1

[32] = target: Gal3S(b1-4)Glc6S
How it was run: as §1

[33] = target: Gal3S(b1-4)GlcNAc
How it was run: as §1

[34] = target: Gal3S(b1-4)[Fuc(a1-3)]Glc6S
How it was run: as §1

[35] = target: Gal3S(b1-4)[Fuc(a1-3)]GlcNAc
How it was run: as §1

[36] = target: Gal3S(b1-4)[Fuc(a1-3)]GlcNAc6S
How it was run: as §1

[37] = target: Gal3S4S(b1-4)GlcNAc
How it was run: as §1

[38] = target: Gal3S6S(b1-4)GlcNAc
How it was run: as §1

[39] = target: Gal3S6S(b1-4)GlcNAc6S
How it was run: as §1

[40] = target: Gal4S(b1-4)GlcNAc
How it was run: as §1

[41] = target: Gal4S6S(b1-4)GlcNAc
How it was run: as §1

[42] = target: Gal6P(b1-4)GlcNAc
How it was run: as §1

[43] = target: Gal6S(b1-3)GlcNAc
How it was run: as §1

[44] = target: Gal6S(b1-3)GlcNAc6S
How it was run: as §1

[45] = target: Gal6S(b1-4)Glc
How it was run: as §1

B1: NKR-PIC (Mus musculus) (protein)
chain: GTGQKPSREKCCVFIQENLNKTTDCSVNLECPQDWLLHRDKCFHVSQVSNTWEEGQADCGRKGATLLLIQDQEELRFLLDSIKEKYNSFWIGLRFTLPDMNWKWINGTTFNSDVLKITGVTENGSCASILGDKVTPESCASDNRWICQKELNHETPSNDSGT
- glycan array binding signal (z-score) [1]: -0.257
- glycan array binding signal (z-score) [2]: -0.286
- glycan array binding signal (z-score) [3]: -0.241
- glycan array binding signal (z-score) [4]: -0.247
- glycan array binding signal (z-score) [5]: -0.258
- glycan array binding signal (z-score) [6]: -0.318
- glycan array binding signal (z-score) [7]: -0.323
- glycan array binding signal (z-score) [8]: -0.255
- glycan array binding signal (z-score) [9]: -0.277
- glycan array binding signal (z-score) [10]: -0.32
- glycan array binding signal (z-score) [11]: -0.224
- glycan array binding signal (z-score) [12]: -0.18
- glycan array binding signal (z-score) [13]: 0.128
- glycan array binding signal (z-score) [14]: -0.274
- glycan array binding signal (z-score) [15]: -0.348
- glycan array binding signal (z-score) [16]: -0.201
- glycan array binding signal (z-score) [17]: -0.39
- glycan array binding signal (z-score) [18]: -0.29
- glycan array binding signal (z-score) [19]: -0.342
- glycan array binding signal (z-score) [20]: -0.33
- glycan array binding signal (z-score) [21]: 3.35
- glycan array binding signal (z-score) [22]: -0.109
- glycan array binding signal (z-score) [23]: 2.41
- glycan array binding signal (z-score) [24]: -0.318
- glycan array binding signal (z-score) [25]: -0.232
- glycan array binding signal (z-score) [26]: -0.272
- glycan array binding signal (z-score) [27]: -0.371
- glycan array binding signal (z-score) [28]: -0.25
- glycan array binding signal (z-score) [29]: -0.292
- glycan array binding signal (z-score) [30]: -0.318
- glycan array binding signal (z-score) [31]: -0.166
- glycan array binding signal (z-score) [32]: -0.179
- glycan array binding signal (z-score) [33]: -0.23
- glycan array binding signal (z-score) [34]: -0.02
- glycan array binding signal (z-score) [35]: -0.292
- glycan array binding signal (z-score) [36]: -0.312
- glycan array binding signal (z-score) [37]: -0.178
- glycan array binding signal (z-score) [38]: -0.159
- glycan array binding signal (z-score) [39]: -0.22
- glycan array binding signal (z-score) [40]: -0.086
- glycan array binding signal (z-score) [41]: -0.254
- glycan array binding signal (z-score) [42]: -0.386
- glycan array binding signal (z-score) [43]: -0.331
- glycan array binding signal (z-score) [44]: -0.349
- glycan array binding signal (z-score) [45]: -0.305
